The other results are listed elsewhere or left out.

T1: UNK ZnF1-3 (human, UniProt Q9C0B0 31-174)
T1 sequence: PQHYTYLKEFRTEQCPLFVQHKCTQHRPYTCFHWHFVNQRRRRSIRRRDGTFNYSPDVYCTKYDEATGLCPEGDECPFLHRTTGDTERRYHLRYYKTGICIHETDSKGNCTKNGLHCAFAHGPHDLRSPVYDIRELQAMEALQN

B1: 77941773_77949851_993_CDS_ENSG00000138758_ENST00000541121|human|control|control (ssRNA)
RNA: GGGAGUUCUACAGUCCGACGAUCCAUUUCUUCUUCUUUCUUCUGCAGUUCUCCCAGGAAUUCAUUCCUUUUUGCUUCAUAUGUCUCCUGAAGACUGAAGGGUUUGCUGUCAGGGUCAGUGUCCUUGAACCCCAUCUCUUCAAGCAACAGAGGAUUGAGCAUCA
B2: chr11:46765198:46765199:-_ENSG00000175216_ENST00000415402|hu_mus|FALSE|FALSE (ssRNA)
RNA: GGGAGUUCUACAGUCCGACGAUCUACAGAAUACAGUGUCCCUUCAGGGCUACAGAAGAAGAGCUCACAACUCAAAAGGAACUAUUAAAAGAGUUUCUAAUGGCUGAAAGCUAGGAAAAAUUAGGACAAUUUUACAAAUGAGCCCAACAGAGGAUUGAGCAUCA
B3: chr12:46321692:46321693:-_ENSG00000139218_ENST00000369367|hu_hu|FALSE|FALSE (ssRNA)
RNA: GGGAGUUCUACAGUCCGACGAUCGCUCUCUAUAAGCUCCUCUGUUUUUAGUGUAAAAUCUUUAUGUUCAGUAAUUUCUACUAGGGAACUCUCUGUUAUUUUUUCUUCAUUAACCACUGACUCUACAUUCUCAGAUAAGUCACUCAACAGAGGAUUGAGCAUCA
B4: chr11:86887402:86887403:-_ENSMUSG00000061666_ENSMUST00000020804|mus_mus|FALSE|FALSE (ssRNA)
RNA: GGGAGUUCUACAGUCCGACGAUCAGAGAUGUGCCUACUGAGGAAUCGCUGUUUCUUUCUCUGGUGCAGCAACGCUGGGUAUUUAAGCAACAAGAACGAGGUGACCAAAUAUCCCCCCAGAGUAGAGAGAAGGCAAAAAGCCGCCAACAGAGGAUUGAGCAUCA
B5: chr12:16048344:16048345:+_ENSG00000023734_ENST00000419869|hu_hu|hu_hu_hu_mus_True|1_58 (ssRNA)
RNA: GGGAGUUCUACAGUCCGACGAUCAGAUCGUCCAUAAGUAAUAACCAAAAUCUCUCCUUCAGGAAUAUACUCCAUGCUACUAACAGACAUAUUAAAAUUCAGAGAUUUCACUUCUGUCAUUGUGGCAUGAUCCCAGAGUCGAACCAACAGAGGAUUGAGCAUCA
B6: 11318127_11319362_1394_CDS_ENSMUSG00000022241_ENSMUST00000022849|mouse|control|control (ssRNA)
RNA: GGGAGUUCUACAGUCCGACGAUCCGAGAGCUCAUUCCUAUGCAGCACACCAAAGUCAGCUAGCCGCAGGGGCAGCUCUCGCCAGGACCGUGGCCGGUGAUCGAACAUCAGGCAGUGUCCCGGGCAGUUCAUGGGCUUAAGUGCCAACAGAGGAUUGAGCAUCA
B7: 41309195_41313217_1113_3pUTR_ENSMUSG00000025016_ENSMUST00000025989|mouse|control|control (ssRNA)
RNA: GGGAGUUCUACAGUCCGACGAUCUCCAAAGUACCCGUUCACUGGCGAUGUAGCAGCAUAGACAAAUAUGGCUGUGCUGAGCAUUGACCCCCUCUCUGUAUAUAAGUCCUCUAUCAUGGCAACAAUAAUAACAAUGAGAGACACCAACAGAGGAUUGAGCAUCA
B8: chr18:21054979:21054980:+_ENSG00000101782_ENST00000339486|hu_mus|FALSE|FALSE (ssRNA)
RNA: GGGAGUUCUACAGUCCGACGAUCCUUUACUUCUUUUAAUUUAGGGGCUGGAACUUGAUCAUGGCCAAUGAAAGACAUAACUAAAAUGUGCUUCUUAAGCAGUACAACUGUUGGACAAGGAAUUCCAGCCUUCUGCAUUCUUGUCAACAGAGGAUUGAGCAUCA
B9: chr15:43699750:43699751:-_ENSG00000067369_ENST00000382044|hu_hu|FALSE|FALSE (ssRNA)
RNA: GGGAGUUCUACAGUCCGACGAUCACACUUCAGCACCGAGGCUGGGCAUGAGGGGUCCGUCACCACCACAUCAAAUACCCCUAAAGCAAUAUCUUUGUUAUGGGCACUUGAAUGGUGCUGCUUCACAGAGGCUGCACCACCAGUCAACAGAGGAUUGAGCAUCA
B10: chr3:112255392:112255393:-_ENSG00000144848_ENST00000283290|hu_mus|FALSE|FALSE (ssRNA)
RNA: GGGAGUUCUACAGUCCGACGAUCUGAACACAUAGGAGGUGGUGGGAGAUGAGGAUGGUUUUCAAUGGUCACUGUUUUCUUCACAUGAUCUUGACUGAUGUCUUCAUACAUGUGCUCAACUGUUAAAGGCUGCCGUUGCUCAUCCAACAGAGGAUUGAGCAUCA
B11: chr14:35078925:35078926:-_ENSG00000129515_ENST00000362031|hu_hu|FALSE|FALSE (ssRNA)
RNA: GGGAGUUCUACAGUCCGACGAUCAAAAUUUGGCAAUGAACUCUUUGUGUGAACAGUGAAUUUUACUUUAUCCCGCUCACUAAGAGCAUCAGAAAUGUCCACCUGCAGAGCAGCAUCACUUUGAAGAUCUACAUUUAUUGCUUUCAACAGAGGAUUGAGCAUCA
B12: chr5:69958400:69958401:+_ENSMUSG00000029208_ENSMUST00000154728|mus_hu|FALSE|FALSE (ssRNA)
RNA: GGGAGUUCUACAGUCCGACGAUCGUCAUAAAAAUCUACCACAAUUUCAUUCAAAGGAAAGAGAUAUUUAAGCAUAACUCUAUUUUGAUCAAUAAAUAUCAUAUUCUUCUGAACUGCUCUUCGAGCCUCGCAAAGCAUCAUUAUCAACAGAGGAUUGAGCAUCA
B13: chr7:54823571:54823572:-_ENSG00000132432_ENST00000352861|hu_mus|hu_hu_hu_mus_False|48_58 (ssRNA)
RNA: GGGAGUUCUACAGUCCGACGAUCUCCCAUGAUAGCAAAUCCUAUAGCUGUAGCCAUGGCAAUCUUCUGGAAUUCUUUUCUAUCAGGUUUAGUGCAUCUUUUAACCAGCCGAAUUGAGUCCUUUACAAACUGCCGGCUGGGCUCCAACAGAGGAUUGAGCAUCA
B14: chr5:128440902:128440903:+_ENSG00000066583_ENST00000173527|hu_mus|hu_hu_hu_mus_True|18_58 (ssRNA)
RNA: GGGAGUUCUACAGUCCGACGAUCUUGAACGGUGCUGCCAAGUCCUUUGGGGUAUUGUUCCGUUAUGAUAACUGGAAUUCCUAAAAUCCGAGCUCCUUGCAACAGUCUCUGUCCCACGCUAAUAAUAUCCCCAAAGUAUUUGAUCAACAGAGGAUUGAGCAUCA

For this assay, the target named is T1, UNK ZnF1-3. As to the kind of experiment: nsRBNS (natural sequence RNA bind-n-seq); RBNS binding buffer (assumed for nsRBNS): 25 mM Tris pH 7.5, 150 mM KCl, 3 mM MgCl2, 0.01% Triton X-100, 500 ug/ml BSA, 20 U/ml SUPERase-In, 4 C; UNK is unkempt and MSI1 is Musashi-1; names of the RNAs are library labels; protein concentration not given here; high values mean tight binding.
With B1, the binding signal stood at 0.403 enrichment R. Under B2 stands 1.81 enrichment R.

Molecule B3 gave a binding signal of 0.553 enrichment R. With B4 the figure was 1.78 enrichment R; with B5, 0.733 enrichment R. With B6 the figure was 1.1 enrichment R; with B7, 1.25 enrichment R; with B8, 0.871 enrichment R. Under B9 stands 0.836 enrichment R; under B10, 0.954 enrichment R; under B11, 1.13 enrichment R. Take B12: the binding signal is 0.862 enrichment R.

B13 gave a binding signal of 0.76 enrichment R. Regarding B14, the binding signal is 1.02 enrichment R.
